Results taken from patent publication US20260042834A1, “ANTI-CORTICOTROPIN-RELEASING HORMONE ANTIBODIES AND POLYCYSTIC OVARY SYNDROME” (HBM ALPHA THERAPEUTICS, INC., priority 2022, published 2026).
Numbering of substitutions follows the chain as printed.

T1: biotinylated CRH (Homo sapiens, UniProt P06850)
T1 construct: purchased GL Biochem 784751
T1 sequence (P06850 154-194): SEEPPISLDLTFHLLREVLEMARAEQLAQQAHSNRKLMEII

B1: PR006746: ΔPTM variant of Series 2 mAb PR006669; HCDR2 54DS55 (antibody)
heavy: EVQLVESGGGLVQPGGSLRLSCAASGFTFSDNWMSWVRQAPGKGLEWVANIKQDSSENYYVDSVKGRFTISRDNAKNSLYLQMNSLRAEDTAVYYCSRGLALWGWGQGTLVTVSS[human IgG1 constant region not listed]
light: DIVMTHSPLSLPVTPGDPASISCRSSQSLLHSTGYNYLDWYLQKPGQSPQLLIYLGSNRASGVPDRFSGSGSGTDFTLKFIRVEAEDVGVYYCMQALQTPYTFGQGTKLEIKRTVAAPSVFIFPPSDEQLKSGTASVVCLLNNFYPREAKVQWKVDNALQSGNSQESVTEQDSKDSTYSLSSTLTLSKADYEKHKVYACEVTHQGLSSPVTKSFNRGEC
B2: PR006745: ΔPTM variant of Series 2 mAb PR006669; HCDR2 54DA55 (antibody)
heavy: B1 heavy with S55A
light: B1 light
B3: PR302341-43 (antibody)
heavy: QVQLVQSGAEVKKPGASVKVSCKASGYTFTDYFMKWVRQAPGQGLEWMGVINPNNADIFYNQKFKGRVTMTVDKSTSTAYMELSSLRSEDTAVYYCARGTDRALFAYWGQGTLVTVSS[human IgG1 constant region not listed]
light: DVVMTQTPLSSPVTLGQPASISCRSGQSIVHSDGNTYLEWYQQRPGQPPRLLIYKVSNRFSGVPDRFSGSGAGTDFTLKISRVEAEDLGVYYCFQGSHIPWTFGGGTKVEIKRTVAAPSVFIFPPSDEQLKSGTASVVCLLNNFYPREAKVQWKVDNALQSGNSQESVTEQDSKDSTYSLSSTLTLSKADYEKHKVYACEVTHQGLSSPVTKSFNRGEC
B4: PR302341-59 (antibody)
heavy: B3 heavy with G44R, N55S, A56G, M70I, V72R, K74T, T76A
light: B3 light with T7S, S11L, G34A, P48S, A72S
B5: PR302341-53 (antibody)
heavy: B3 heavy with N55S, A56G
light: B3 light with D33S
B6: PR302341-58 (antibody)
heavy: B3 heavy with G44R, M70I, V72R, K74T, T76A
light: B3 light with T7S, S11L, G34A, P48S, A72S
B7: PR302341-29 (antibody)
heavy: B3 heavy with T76I, S85R, E89D
light: B3 light with T7S, S11L, P48S, A72S
B8: PR302341-54 (antibody)
heavy: B3 heavy with N55Q, A56G
light: B3 light with D33S
B9: PR302341-47 (antibody)
heavy: B3 heavy with N55S, A56G
light: B3 light with G34A
B10: PR302341-48: Series 10 humanized, PTM-removed anti-CRH mAb (Table 9), scaled up for in vivo studies (antibody)
heavy: B3 heavy with N55Q, A56G
light: B3 light with G34A
B11: PR302341-33 (antibody)
heavy: B3 heavy with T76I, S85R, E89D
light: B3 light with T7S, S11L, G34A, P48S, A72S
B12: PR302341-52 (antibody)
heavy: B3 heavy
light: B3 light with D33S
B13: PR302341-57 (antibody)
heavy: B3 heavy with G44R, N55Q, A56G, M70I, V72R, K74T, T76A
light: B3 light with T7S, S11L, P48S, A72S
B14: PR302341-45 (antibody)
heavy: B3 heavy with N55Q, A56G
light: B3 light
B15: PR302341-37 (antibody)
heavy: B3 heavy with N55S, A56G, T76I, S85R, E89D
light: B3 light with T7S, S11L, G34A, P48S, A72S
B16: PR302341-46 (antibody)
heavy: B3 heavy
light: B3 light with G34A

System: human CRHR2
Assay: CRH-induced luciferase reporter blocking assay, CHO-CRE-hCRHR2 cells
Assay type: cell-based
Conditions: CHO-CRE-hCRHR2 cells, 0.1 nM CRH
Experimental: (§1) To create CHO-CRE-hCRHR1, -hCRHR2, -mCRHR1, and -mCRHR2 reporter cell lines, pcDNA3.1-hCRHR1, -hCRHR2, -mCRHR1, and -mCRHR2 were introduced into CHO-CRE cells established above by electroporation as described above. Selection antibiotics hygromycin at 500 μg/ml and G418 at 1,000 μg/ml were employed. Individual established stable cell lines were characterized by both CRH and forskolin stimulation.
Activated GPCR proteins increase production of the intracellular cAMP. CHO-CRE-human CRHR1 stable clone 11 was generated by introduction of pcDNA3.1-human CRHR1 under the selection of G418 and hygromycin. Human CRHR1 expression in CHO-CRE-hCRHR1 Clone 11 was confirmed by flow cytometry (data not shown). To further validate that the cell line was functional, CHO-CRE-hCRHR1 Clone 11 cells were treated with forskolin and CRH peptide. […] Subsequently CHO-CRE-hCRHR2 Clone 32, -mCRHR1 Clone 22, and -mCRHR2 Clone 8 cell lines were established using similar methodology and validated with CRH treatment (data not shown).
Blocking CRHR1 by small molecules or neutralization of CRH peptide can reduce luciferase expression if the CRH-CRHR1 system works in CHO-CRE-hCRHR1 cells. Antalarmin, a small molecule CRHR1 antagonist, blocked CRH-mediated luciferase expression in CHO-CRE-hCRHR1 Clone 11 (data not shown). Furthermore, sheep anti-CRH polyclonal antibody reduced CRH-mediated luciferase expression in these cells (data not shown). Likewise, sheep anti-CRH polyclonal antibody blocked CRH-mediated luciferase expression in CHO-CRE-hCRHR2, CHO-CRE-mCRHR1, and CHO-CRE-mCRHR2 cells (data not shown).
(§2) Cells were digested by trypsin-EDTA (Life technologies, Cat #:12604-013), centrifuged at 1,000 rpm for 5 min, resuspended in growth medium, counted using a cell counter, seeded at a concentration of 5,000 cells per 100 μl in 96-well flat plates, and incubated overnight. 50 μl of 4× serially diluted antibodies was added (8 points, 1/4 diluted by growth medium) to plates containing CHO-CRE-hCRHR1 cells, and 50 μl of 4×CRH (4× is 2 nM, final is 0.5 nM) was added. Similarly, 4×CRH (4× is 0.4 nM, final is 0.1 nM) was added to CHO-CRE-hCRHR2 cells and CHO-CRE-mCRHR1 cells, and 4×CRH (4× is 20 nM, final is 5 nM) was added to CHO-CRE-mCRHR2 cells. Next, plates were incubated 4-6 hours at 37° C. in a CO2 incubator. 60 μl of culture medium was removed, to which was added 60 μl of Bio-Glo luciferase, followed by incubation for 10 min at RT. Plates were read in a luciferase plate reader (EnVision, PerkinElmer).

IC50 [nM]	Molecule
37.8	B1
61	B2

Same assay, conditions: Table 9; hCRHR2

IC50 [nM]	Molecule
0.647	B3
3.01	B4
2.37	B5
3.35	B6
1.18	B7
5.05	B8
2.45	B9
~2.23	B10
1.29	B11
3.02	B12
4.67	B13
1.39	B14
2.35	B15

Target: T1, biotinylated CRH
Assay: Affinity determination with Octet
Assay type: binding
Conditions: not given
Experimental: Octet® Red 96e was used for affinity measurement. Octet® running buffer was prepared by diluting kinetics buffer 10× (Fortebio, Cat #18-1105) in PBS according to the manufacturer's instructions. Two columns of SA sensors (Fortebio, Cat #18-5019) were hydrated in running buffer for 10 mins, one for ligand capturing and the other for reference. Antibodies were 2-fold diluted and added into a 96-well plate. 30 nM biotinylated CRH (GL Biochem, Cat #784751) was captured by the first column of SA sensors for 20 seconds, while reference sensors were dipped into buffer wells. After a 60-second baseline step, sensors were dipped into analyte and buffer wells successively, with the association and dissociation time of 180 seconds and 800 seconds, respectively. Sensors were regenerated in glycine pH1.5 (Cytiva, Cat #BR-1003-54) before the next cycle. […] Signals of reference wells and reference sensors were subtracted by selecting “Double reference” before data fitting.

kdis [s⁻¹]	kon [M⁻¹ s⁻¹]	Molecule
8.69e-05	–	B1
<1e-07	1.04e+06	B10

System: mouse CRHR2
Assay: CRH-induced luciferase reporter blocking assay, CHO-CRE-mCRHR2 cells
Assay type: cell-based
Conditions: CHO-CRE-mCRHR2 cells, 5 nM CRH
Experimental: as §1, with “stimulation. […]” for “stimulation.”
as §2

IC50 [nM]	Molecule
9.31	B1

Same assay, conditions: Table 9; mCrhr2

IC50 [nM]	Molecule
0.999	B3
3	B4
3.16	B5
1.72	B6
0.413	B7
2.19	B8
2.16	B9
2.78	B16
1.87	B10
1.86	B11
3.53	B12
1.66	B13
~2.27	B14
~2.12	B15
